Assay results taken from patent US7049395 (YALE UNIVERSITY, dated 2006).

Experiments:
NEMO-(44-419) = biological target: T1, NEMO-(44-419) (human, UniProt Q9Y6K9); experiment: GST pull-down of [35S]-labelled NEMO truncations
T1 construct: range 44-419; [35S]-labelled in vitro translated; also transfected in COS or HEK293 cells
From the text: (§1) Equal amounts of each protein were used for subsequent GST pull-down analyses.

NEMO-(1-302) = biological target: T2, NEMO-(1-302) (human, UniProt Q9Y6K9 1-302); experiment: GST pull-down of [35S]-labelled NEMO truncations
T2 construct: range 1-302; [35S]-labelled in vitro translated; also transfected in COS or HEK293 cells
From the text: as §1

NEMO-(197-419) = biological target: T3, NEMO-(197-419) (human, UniProt Q9Y6K9 197-419); experiment: GST pull-down of [35S]-labelled NEMO truncations
T3 construct: range 197-419; [35S]-labelled in vitro translated; also transfected in COS or HEK293 cells
From the text: as §1

NEMO-(86-419) = biological target: T4, NEMO-(86-419) (human, UniProt Q9Y6K9 86-419); experiment: GST pull-down of [35S]-labelled NEMO truncations
T4 construct: range 86-419; [35S]-labelled in vitro translated; also transfected in COS or HEK293 cells
From the text: as §1

IKKβ-(1-733) = biological target: T5, IKKβ-(1-733) (human, UniProt O14920 1-733); experiment: GST pull-down of [35S]-labelled in vitro translated protein
T5 construct: in vitro translated, [35S]-labelled; also transfected in HeLa cells for the reporter assay
T5 sequence (looked up): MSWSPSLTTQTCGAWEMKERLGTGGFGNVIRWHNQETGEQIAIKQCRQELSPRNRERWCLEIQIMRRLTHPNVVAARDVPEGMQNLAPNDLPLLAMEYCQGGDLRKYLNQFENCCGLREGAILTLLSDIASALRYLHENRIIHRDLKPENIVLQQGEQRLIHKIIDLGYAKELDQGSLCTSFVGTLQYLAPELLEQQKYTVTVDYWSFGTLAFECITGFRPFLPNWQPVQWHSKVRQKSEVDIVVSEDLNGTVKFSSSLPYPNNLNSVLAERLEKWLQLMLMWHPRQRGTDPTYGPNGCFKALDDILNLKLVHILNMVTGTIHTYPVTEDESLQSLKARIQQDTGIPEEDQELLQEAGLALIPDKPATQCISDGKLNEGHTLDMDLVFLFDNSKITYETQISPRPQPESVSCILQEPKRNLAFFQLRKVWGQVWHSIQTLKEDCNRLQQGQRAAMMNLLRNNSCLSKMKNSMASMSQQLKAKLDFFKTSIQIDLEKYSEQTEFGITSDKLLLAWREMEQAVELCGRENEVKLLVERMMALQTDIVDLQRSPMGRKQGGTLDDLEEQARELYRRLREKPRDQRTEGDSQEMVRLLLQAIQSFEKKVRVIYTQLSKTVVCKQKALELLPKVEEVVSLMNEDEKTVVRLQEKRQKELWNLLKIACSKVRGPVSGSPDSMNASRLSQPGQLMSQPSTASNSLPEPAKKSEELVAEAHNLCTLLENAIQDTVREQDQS

IKKβ-(458-756) = biological target: T6, IKKβ-(458-756) (human, UniProt O14920 458-756); experiment: as above
T6 construct: in vitro translated, [35S]-labelled
T6 sequence (looked up): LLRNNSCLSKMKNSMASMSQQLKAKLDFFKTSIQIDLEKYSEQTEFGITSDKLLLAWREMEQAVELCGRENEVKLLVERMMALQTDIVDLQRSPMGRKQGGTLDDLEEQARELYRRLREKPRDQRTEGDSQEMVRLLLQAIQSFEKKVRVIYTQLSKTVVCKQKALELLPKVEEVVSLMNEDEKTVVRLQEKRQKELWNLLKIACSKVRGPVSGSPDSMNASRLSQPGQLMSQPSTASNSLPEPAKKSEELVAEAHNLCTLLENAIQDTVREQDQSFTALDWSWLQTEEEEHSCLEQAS

IKKβ-(1-644) = biological target: T7, IKKβ-(1-644) (human, UniProt O14920 1-644); experiment: as above
T7 construct: in vitro translated, [35S]-labelled
T7 sequence (looked up): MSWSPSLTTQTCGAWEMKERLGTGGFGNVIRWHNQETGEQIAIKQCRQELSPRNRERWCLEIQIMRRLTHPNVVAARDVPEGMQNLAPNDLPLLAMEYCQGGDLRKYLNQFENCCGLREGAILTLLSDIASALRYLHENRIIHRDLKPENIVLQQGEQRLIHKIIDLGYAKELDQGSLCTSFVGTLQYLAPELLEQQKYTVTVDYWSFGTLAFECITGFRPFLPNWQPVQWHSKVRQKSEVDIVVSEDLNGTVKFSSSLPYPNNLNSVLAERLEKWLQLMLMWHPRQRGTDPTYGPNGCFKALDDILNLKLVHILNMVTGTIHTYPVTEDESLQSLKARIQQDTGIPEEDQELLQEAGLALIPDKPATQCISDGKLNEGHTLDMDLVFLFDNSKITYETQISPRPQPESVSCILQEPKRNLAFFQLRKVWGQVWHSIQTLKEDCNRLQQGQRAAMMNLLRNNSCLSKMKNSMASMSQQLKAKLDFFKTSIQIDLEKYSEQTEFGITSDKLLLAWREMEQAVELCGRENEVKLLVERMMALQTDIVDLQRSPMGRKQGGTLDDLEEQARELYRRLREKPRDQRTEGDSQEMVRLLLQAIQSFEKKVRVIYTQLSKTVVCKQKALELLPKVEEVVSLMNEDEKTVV

IKKβ-(307-756) = biological target: T8, IKKβ-(307-756) (human, UniProt O14920 307-756); experiment: as above
T8 construct: in vitro translated, [35S]-labelled
T8 sequence (looked up): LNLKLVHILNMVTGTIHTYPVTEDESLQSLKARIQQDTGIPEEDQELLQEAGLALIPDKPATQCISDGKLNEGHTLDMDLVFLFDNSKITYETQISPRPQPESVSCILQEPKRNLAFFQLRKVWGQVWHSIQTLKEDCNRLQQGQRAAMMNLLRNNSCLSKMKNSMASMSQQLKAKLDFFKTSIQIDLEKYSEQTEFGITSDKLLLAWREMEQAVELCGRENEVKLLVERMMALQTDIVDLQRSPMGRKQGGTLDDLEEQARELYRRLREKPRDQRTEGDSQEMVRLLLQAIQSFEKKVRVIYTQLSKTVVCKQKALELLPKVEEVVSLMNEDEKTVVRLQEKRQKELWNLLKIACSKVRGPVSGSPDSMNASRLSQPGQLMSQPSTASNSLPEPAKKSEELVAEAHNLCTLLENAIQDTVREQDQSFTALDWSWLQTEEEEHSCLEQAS

IKKβ-(1-707) = biological target: T9, IKKβ-(1-707) (human, UniProt O14920 1-707); experiment: as above
T9 construct: range 1-707; in vitro translated, [35S]-labelled
T9 sequence (looked up): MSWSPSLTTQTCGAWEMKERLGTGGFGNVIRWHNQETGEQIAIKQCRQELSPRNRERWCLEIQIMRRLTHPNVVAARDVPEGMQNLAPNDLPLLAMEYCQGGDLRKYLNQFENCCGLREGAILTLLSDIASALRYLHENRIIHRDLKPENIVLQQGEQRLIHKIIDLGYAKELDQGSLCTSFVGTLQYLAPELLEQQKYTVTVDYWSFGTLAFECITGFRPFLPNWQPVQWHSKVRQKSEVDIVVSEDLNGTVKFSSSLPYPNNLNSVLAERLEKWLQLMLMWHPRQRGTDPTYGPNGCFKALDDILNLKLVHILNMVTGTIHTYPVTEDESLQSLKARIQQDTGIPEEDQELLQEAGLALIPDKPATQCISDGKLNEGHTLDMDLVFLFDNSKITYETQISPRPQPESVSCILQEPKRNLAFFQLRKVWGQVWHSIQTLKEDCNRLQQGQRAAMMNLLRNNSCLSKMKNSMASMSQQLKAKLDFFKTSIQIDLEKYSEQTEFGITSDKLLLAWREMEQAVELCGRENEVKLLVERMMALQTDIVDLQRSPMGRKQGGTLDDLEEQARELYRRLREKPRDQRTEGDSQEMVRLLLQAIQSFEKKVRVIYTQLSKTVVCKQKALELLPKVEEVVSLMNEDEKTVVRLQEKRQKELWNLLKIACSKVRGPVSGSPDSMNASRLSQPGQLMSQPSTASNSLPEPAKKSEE

IKKβ-(486-756) = biological target: T10, IKKβ-(486-756) (human, UniProt O14920 486-756); experiment: as above
T10 construct: in vitro translated, [35S]-labelled
T10 sequence (looked up): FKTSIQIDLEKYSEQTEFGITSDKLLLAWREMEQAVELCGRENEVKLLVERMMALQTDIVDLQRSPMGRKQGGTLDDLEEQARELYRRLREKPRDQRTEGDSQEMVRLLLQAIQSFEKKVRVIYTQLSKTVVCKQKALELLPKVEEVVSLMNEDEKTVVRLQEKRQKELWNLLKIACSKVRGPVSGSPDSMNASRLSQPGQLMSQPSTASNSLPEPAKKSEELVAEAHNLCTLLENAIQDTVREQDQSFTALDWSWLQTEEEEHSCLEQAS

IKKβ-(1-456) = biological target: T11, IKKβ-(1-456) (human, UniProt O14920 1-456); experiment: as above
T11 construct: in vitro translated, [35S]-labelled
T11 sequence (looked up): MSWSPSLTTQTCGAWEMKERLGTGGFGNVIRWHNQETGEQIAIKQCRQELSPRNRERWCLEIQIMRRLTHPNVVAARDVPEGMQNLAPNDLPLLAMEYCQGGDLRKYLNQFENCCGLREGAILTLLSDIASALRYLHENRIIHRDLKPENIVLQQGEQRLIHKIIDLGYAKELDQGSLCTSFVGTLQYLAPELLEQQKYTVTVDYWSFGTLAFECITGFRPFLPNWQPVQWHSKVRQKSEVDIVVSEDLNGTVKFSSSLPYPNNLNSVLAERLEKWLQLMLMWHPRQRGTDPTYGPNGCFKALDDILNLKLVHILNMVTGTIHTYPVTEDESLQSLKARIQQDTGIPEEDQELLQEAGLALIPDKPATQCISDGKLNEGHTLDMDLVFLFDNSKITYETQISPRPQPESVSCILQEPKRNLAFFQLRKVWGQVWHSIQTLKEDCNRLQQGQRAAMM

IKKβ-(1-662) = biological target: T12, IKKβ-(1-662) (human, UniProt O14920 1-662); experiment: as above
T12 construct: range 1-662; in vitro translated, [35S]-labelled
T12 sequence (looked up): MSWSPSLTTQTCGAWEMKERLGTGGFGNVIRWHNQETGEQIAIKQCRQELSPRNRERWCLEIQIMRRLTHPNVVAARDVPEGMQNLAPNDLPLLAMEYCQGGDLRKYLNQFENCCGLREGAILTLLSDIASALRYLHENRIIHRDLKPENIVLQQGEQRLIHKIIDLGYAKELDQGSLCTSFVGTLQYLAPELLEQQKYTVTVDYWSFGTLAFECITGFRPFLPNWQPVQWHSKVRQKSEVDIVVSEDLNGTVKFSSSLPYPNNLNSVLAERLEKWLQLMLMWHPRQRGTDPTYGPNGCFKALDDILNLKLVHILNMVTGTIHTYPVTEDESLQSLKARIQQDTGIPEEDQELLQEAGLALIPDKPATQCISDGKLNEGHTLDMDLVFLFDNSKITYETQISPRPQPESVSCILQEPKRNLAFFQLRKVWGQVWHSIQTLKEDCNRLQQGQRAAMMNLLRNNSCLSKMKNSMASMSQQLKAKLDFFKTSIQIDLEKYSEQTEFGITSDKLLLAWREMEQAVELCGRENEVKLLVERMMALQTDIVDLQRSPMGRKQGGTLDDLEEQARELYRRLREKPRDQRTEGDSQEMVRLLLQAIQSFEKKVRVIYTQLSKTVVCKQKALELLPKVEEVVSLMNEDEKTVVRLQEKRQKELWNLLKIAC

IKKβ-(1-605) = biological target: T13, IKKβ-(1-605) (human, UniProt O14920 1-605); experiment: as above
T13 construct: in vitro translated, [35S]-labelled
T13 sequence (looked up): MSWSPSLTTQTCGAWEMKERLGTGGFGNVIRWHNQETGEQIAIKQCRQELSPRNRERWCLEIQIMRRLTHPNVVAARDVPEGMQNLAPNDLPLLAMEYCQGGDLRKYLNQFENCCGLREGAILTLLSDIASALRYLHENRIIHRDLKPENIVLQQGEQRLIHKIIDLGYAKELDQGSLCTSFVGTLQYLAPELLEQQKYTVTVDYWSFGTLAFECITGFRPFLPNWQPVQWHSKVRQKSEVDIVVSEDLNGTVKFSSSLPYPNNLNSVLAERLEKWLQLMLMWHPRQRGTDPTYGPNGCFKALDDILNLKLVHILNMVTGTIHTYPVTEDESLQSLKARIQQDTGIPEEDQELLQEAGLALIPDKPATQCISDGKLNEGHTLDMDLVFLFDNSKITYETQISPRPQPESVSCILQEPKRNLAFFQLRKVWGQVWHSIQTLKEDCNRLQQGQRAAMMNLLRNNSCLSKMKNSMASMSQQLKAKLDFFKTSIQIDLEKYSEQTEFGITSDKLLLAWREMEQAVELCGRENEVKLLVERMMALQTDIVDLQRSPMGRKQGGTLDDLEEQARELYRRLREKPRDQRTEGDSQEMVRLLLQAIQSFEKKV

binding result (NEMO-(44-419)): no binding
binding result (NEMO-(1-302)): no binding
binding result (NEMO-(197-419)): no binding
binding result (NEMO-(86-419)): no binding
binding result (IKKβ-(1-733)): no binding
binding result (IKKβ-(458-756)): no binding
binding result (IKKβ-(1-644)): no binding
binding result (IKKβ-(307-756)): no binding
binding result (IKKβ-(1-707)): no binding
binding result (IKKβ-(486-756)): no binding
binding result (IKKβ-(1-456)): no binding
binding result (IKKβ-(1-662)): no binding
binding result (IKKβ-(1-605)): no binding
B1: GST alone (other)
chain: not shown
notes: control bait in the GST pull-downs
